From PubChem BioAssay AID2675 (National Center for Advancing Translational Sciences (NCATS), 2010)
The whole screen tested about 280,000 compounds, of which about 100 (0.036%) were called active. The inconclusive results got no clear call from the source; some entries with a clear call stand among them for comparison. Calls come from the whole dose curve; as a rule, active = well fitted inhibition curve with a large enough effect in the signal ratio, with a control signal flat (not every such curve was filed as active); inconclusive = small, poorly fitted or top-dose-only effect, or effect the other way, or a change in a side signal; inactive = no such curve, though single readings can be large or run the other way; the % refers to the signal ratio. Potencies of inconclusive entries are doubtful fits and often do not repeat. A note “side channel” means that the fit belongs to a control or component signal, not to the main read-out.

molecular target: Muscleblind-like protein 1 (Homo sapiens) (UniProt Q9NR56); assay: qHTS Assay for Inhibitors of MBNL1-poly(CUG) RNA binding; conditions: TR-FRET MBNL1-His/biotin-(CUG)12 binding, 665/545 ratio; activity change, negative = inhibition: at 57.5 µM (top of the series)
Sequence of UniProt Q9NR56 (Q9NR56 whole entry, looked up): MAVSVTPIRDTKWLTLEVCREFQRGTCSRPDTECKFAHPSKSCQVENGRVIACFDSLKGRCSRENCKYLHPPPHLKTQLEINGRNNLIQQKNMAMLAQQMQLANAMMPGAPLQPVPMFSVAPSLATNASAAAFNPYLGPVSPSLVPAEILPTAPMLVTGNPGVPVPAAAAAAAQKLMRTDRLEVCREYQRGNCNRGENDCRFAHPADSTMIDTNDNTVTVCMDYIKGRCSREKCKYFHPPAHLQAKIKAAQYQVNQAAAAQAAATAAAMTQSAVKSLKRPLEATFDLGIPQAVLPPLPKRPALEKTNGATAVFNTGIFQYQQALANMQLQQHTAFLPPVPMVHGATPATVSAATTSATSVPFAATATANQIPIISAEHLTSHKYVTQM
In short: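 MBNL1-His + Biotin-(CUG)12, cpd titration 92 nM–58 uM; Tb anti-His Ab 0.055 ng/ul, SA-XL665 5 nM (final); 60 min RT; ratiometric 665/545 nm, Ex 340 nm; normalized to buffer and full-complex controls.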
% is set by controls: 0 for no effect and ±100 for the full control effect; potency is the fitted concentration of half-maximal effect; tags give direction and shape of the fitted curve or compound fluorescence and quenching.

Structure (SMILES) | Potency | activity change, negative = inhibition
COc1ccccc1N1CCN(c2ccc([N+](=O)[O-])nc2)CC1 | inconclusive: 2.82 µM [quencher, full curve] | 
CC(=O)N1CCN(c2ccc(NC(=S)NC(=O)c3ccc(C)c([N+](=O)[O-])c3)cc2)CC1 | inconclusive: 20 µM [quencher, side channel, partial curve] | 
CO/N=C/c1ccc(Oc2ccc([N+](=O)[O-])cc2[N+](=O)[O-])c(OC)c1 | inconclusive: 4.47 µM [quencher, side channel, full curve] | 
COc1ccc(NC(=O)[C@@H]2[C@@H]3C(=O)N(C4CCCCC4)C(=O)[C@@H]3C3c4ccccc4C=CN32)cc1 (some centres not stated) | inconclusive: 25.1 µM [quencher, side channel, single point] | 
CCOC(=O)c1nc2sc3c(c2c(=O)[nH]1)CCCC3 | inconclusive: 15.8 µM [quencher, side channel, partial curve] | 
CCOC(=O)C1CCCN(CCC(=O)Nc2ccc(Br)c(C)c2)C1 (configuration not stated) | inconclusive: 0.794 µM [fluorescent, side channel, single point] | 
Cc1ccc(/C=C2\SC(=S)N(/N=C/c3cc([N+](=O)[O-])ccc3O)C2=O)o1 | inconclusive: 28.2 µM [quencher, side channel, single point] | 
COC(=O)c1sc(=S)n(-c2ccccc2OC)c1N | inconclusive: 8.91 µM [quencher, side channel, partial curve] | 
COc1ccc2nc(SCC(=O)Nc3ccc(S(=O)(=O)Nc4onc(C)c4C)cc3)[nH]c2c1 | inconclusive: 0.708 µM [quencher, side channel, full curve, poor fit] | 
Nc1c(-c2ccccc2)cnn1-c1ccc(C(=O)O)cc1 |  | inactive: 5.61%
c1ccc(Cn2c(-c3ccccc3)nc3nc4ccccc4nc32)cc1 | inconclusive: 8.91 µM [quencher, side channel, full curve, poor fit] | 
COc1ccc(C)cc1S(=O)(=O)Nc1cccc(-c2cn3cccnc3n2)c1 | inconclusive: 20 µM [quencher, side channel, single point] | 
O=C(/C=C/c1ccco1)NCCCN1CCN(CCCNC(=O)/C=C/c2ccco2)CC1 | inconclusive: 3.98 µM [quencher, side channel, full curve] | 
O=C(NCC(O)c1ccc([N+](=O)[O-])cc1)Nc1ccccc1 (configuration not stated) | inconclusive: 28.2 µM [quencher, side channel, partial curve] | 
COc1ccc(CCNC(=O)c2cc3c(=O)n4ccccc4nc3n(Cc3ccco3)c2=N)cc1OC | inconclusive: 8.91 µM [quencher, side channel, partial curve] | 
O=C(N/N=C/c1ccc(-c2ccccc2[N+](=O)[O-])o1)[C@H]1C[C@@H]1c1ccccc1 | inconclusive: 39.8 µM [quencher, side channel, single point] | 
CCN(CC)c1ccc2cc(C(N)=O)c(=O)oc2c1 | inconclusive: 31.6 µM [quencher, side channel, partial curve] | 
CN(c1ccccc1)c1ccc(/C=C(\C#N)c2nnc3n2CCCCC3)cc1[N+](=O)[O-] | inconclusive: 20 µM [activator, partial curve] | 
CC1(C)S[C@@H]2[C@H](NC(=O)C(NC(=O)N3CCNC3=O)c3ccccc3)C(=O)N2[C@H]1C(=O)O (some centres not stated) |  | inactive: -4.49%

Structure (SMILES) | Potency | activity change, negative = inhibition
N#CCCN(C(=O)COC(=O)c1cccc(S(=O)(=O)Nc2ccc([N+](=O)[O-])cc2)c1)c1ccccc1 | inconclusive: 25.1 µM [quencher, side channel, single point] | 
CCCC(=O)Nc1cccc(NC(=O)c2ccc(C)c([N+](=O)[O-])c2)c1 | inconclusive: 20 µM [quencher, side channel, partial curve] | 
O=C(O)c1ccc2c(c1Sc1ccccc1)C(=O)c1ccccc1C2=O | inconclusive: 3.16 µM [quencher, side channel, full curve] | 
COC(=O)c1cc(-c2ccc(NC(C)=O)cc2)nc2ccccc12 | inconclusive: 12.6 µM [quencher, side channel, partial curve] | 
COc1ccc2cc(C(=O)Nc3ccc(S(N)(=O)=O)cc3)sc(=O)c2c1OC | inconclusive: 2.24 µM [quencher, side channel, full curve] | 
O=C(NCc1csc(-c2cccs2)n1)C1CC1 | inconclusive: 8.91 µM [quencher, side channel, partial curve] | 
CCOC(=O)CC1COc2ccccc2N1C(=O)c1cccc([N+](=O)[O-])c1 (configuration not stated) |  | inactive: 19.5%
C[C@@H](CO)NC(=O)c1ccc2c3n(nc2c1)-c1ccc(Cl)cc1CO3 | inconclusive: 28.2 µM [quencher, side channel, partial curve] | 
O=C1[C@@H]2Cc3c([nH]c4ccccc34)C(c3cccc([N+](=O)[O-])c3)N2C(=O)CN1CCCO (some centres not stated) | inconclusive: 15.8 µM [quencher, side channel, partial curve] | 
O=C(O)c1ccc(N2C(=O)/C(=C/c3ccc(-c4ccc([N+](=O)[O-])cc4)o3)C=C2c2ccccc2)cc1 | inconclusive: 39.8 µM [quencher, single point] | 
O=C(CCl)N1c2ccccc2SCC1c1ccccc1 (configuration not stated) |  | inactive: 2.14%
CN1CCc2c(sc3c2C(=O)NC(/C=C\c2ccccc2)N3)C1 (configuration not stated) | inconclusive: 17.8 µM [quencher, side channel, partial curve] | 
Cc1cccc(N(C)S(=O)(=O)c2ccc3[nH]cc(C(=O)N4CCOCC4)c(=O)c3c2)c1 |  | inactive: 9.57%
O=C(NC(=S)Nc1cccc(Cl)c1N1CCCCC1)c1ccco1 |  | inactive: -25.8%
c1ccc(Nc2nc3ccccc3n3cnnc23)cc1 |  | inactive: 22.1%
CN(C)C(=O)c1ccc(-c2nnc(NCc3ccccc3)c3ccccc23)cc1 | inconclusive: 11.2 µM [quencher, side channel, partial curve] | 
COc1ccc(CNC(=O)C2CCN(S(=O)(=O)N3CCCCC3)CC2)c(OC)c1 | inconclusive: 0.631 µM [fluorescent, side channel, single point] | 
CC(=O)c1ccc(C(=O)NC2CCCN(Cc3ccccc3F)C2)s1 (configuration not stated) | inconclusive: 22.4 µM [quencher, side channel, partial curve] | 
Cc1cccc(OCCNc2ccc([N+](=O)[O-])cn2)c1 | inconclusive: 25.1 µM [quencher, side channel, single point] | 

Structure (SMILES) | Potency | activity change, negative = inhibition
CCOC(=O)CSc1nc2c(sc(=S)n2-c2ccc(OCC)cc2)c(=O)[nH]1 | inconclusive: 25.1 µM [quencher, side channel, single point] | 
O=C(COC(=O)CNC(=O)c1cccc([N+](=O)[O-])c1)Nc1cccc(S(=O)(=O)N2CCCCC2)c1 | inconclusive: 20 µM [quencher, side channel, single point] | 
C(=N\n1cnnc1)/c1ccc2ncccc2c1 | inconclusive: 14.1 µM [quencher, side channel, partial curve] | 
CC(C)(C)[C@H]1C=C(C(N)=O)O[C@@H](OCCCCO)C1 |  | inactive: 2.31%
CCC(=O)Nc1ccc(-c2cc3ccccc3oc2=O)cc1 | inconclusive: 12.6 µM [quencher, side channel, partial curve] | 
O=[N+]([O-])c1cc(S(=O)(=O)NC2=NCCCCC2)ccc1Cl | inconclusive: 28.2 µM [quencher, side channel, partial curve] | 
Cc1cc(C)c(C(=O)CSc2nc3ccccc3c(=O)[nH]2)cc1C | inconclusive: 35.5 µM [fluorescent, side channel, single point] | 
O=c1oc(-c2cccc(Cl)c2)nc2c1cnn2-c1ccccc1 |  | inactive: 2.88%
Cc1ccc(C(=O)N2CCN(c3ccc([N+](=O)[O-])cc3-n3cccc3)CC2)cc1 |  | inactive: 23.1%
CCCN(CCC)C(=O)CSc1nc2n[nH]c(C)c2c(=N)n1-c1ccc(OCC)cc1 |  | inactive: -7.82%
N#Cc1ccc(/C=C2\CCCCn3c2nc2cc(C(=O)O)ccc2c3=O)cc1 | inconclusive: 15.8 µM [quencher, side channel, partial curve] | 
CC(=O)C1C(=O)c2c(cccc2[N+](=O)[O-])C1=Nc1ccccc1C (configuration not stated) | inconclusive: 3.16 µM [quencher, side channel, full curve, poor fit] | 
CCOC(=O)CN1N=C(/C=C/c2ccc(C)cc2)CCC1=O | inconclusive: 17.8 µM [quencher, side channel, partial curve] | 
CCCC[n+]1ccn(C2=C([O-])c3ccccc3C(=O)/C2=N\S(=O)(=O)c2ccccc2)c1 | inconclusive: 5.62 µM [quencher, side channel, partial curve] | 
O=C(NC(=S)NCC1CCCO1)c1ccccc1[N+](=O)[O-] (configuration not stated) | inconclusive: 20 µM [quencher, side channel, partial curve] | 
N#Cc1c(-c2ccc([N+](=O)[O-])cc2)nc2n(c1=O)CCS2 | inconclusive: 4.47 µM [quencher, full curve] | 
CC1CCN(c2ccc([N+](=O)[O-])cc2C(=O)N2CCOCC2)CC1 | inconclusive: 7.08 µM [quencher, side channel, partial curve] | 
O=C(Nc1nnc(C2=COCCO2)o1)c1ccc(S(=O)(=O)N2CCCC2)cc1 |  | inactive: -0.0093%
CCOC(=O)c1c2c([nH]c(=S)c1C#N)CCCC2 | inconclusive: 22.4 µM [quencher, side channel, single point] | 
